# PubChem BioAssay AID720708 (National Center for Advancing Translational Sciences (NCATS), 2013)
# The whole screen tested about 360,000 compounds, of which about 660 (0.18%) were called active. Inconclusive results, whose numbers are uncertain, are shown with a selection of clear calls. Calls follow the shape of the dose curve; as a rule, active = well fitted inhibition curve with a large enough effect; inconclusive = small, poorly fitted or top-dose-only effect; inactive = no such curve, though single readings can be large or run the other way. No potency is given beside an inconclusive call; the fits are too rough.
# Target: Rap guanine nucleotide exchange factor 4 (Homo sapiens) (UniProt Q8WZA2)
# Assay: qHTS for Antagonist of cAMP-regulated guanine nucleotide exchange factor 2 (EPAC2): primary screen; also: nearly all actives have a fitted effect of over 45% in size
# Conditions: EPAC2 GEF exchange of Rap1B-BODIPY-GDP, fluorescence; activity, negative = inhibition: at 114 µM (top of the series) unless noted
# % is scaled to controls: 0 for no effect and ±100 for the full control effect; potency is read from the fitted curve at half-maximal effect; tags tell the direction and shape of the fitted curve.
# Sequence of UniProt Q8WZA2 (Q8WZA2 whole entry, looked up): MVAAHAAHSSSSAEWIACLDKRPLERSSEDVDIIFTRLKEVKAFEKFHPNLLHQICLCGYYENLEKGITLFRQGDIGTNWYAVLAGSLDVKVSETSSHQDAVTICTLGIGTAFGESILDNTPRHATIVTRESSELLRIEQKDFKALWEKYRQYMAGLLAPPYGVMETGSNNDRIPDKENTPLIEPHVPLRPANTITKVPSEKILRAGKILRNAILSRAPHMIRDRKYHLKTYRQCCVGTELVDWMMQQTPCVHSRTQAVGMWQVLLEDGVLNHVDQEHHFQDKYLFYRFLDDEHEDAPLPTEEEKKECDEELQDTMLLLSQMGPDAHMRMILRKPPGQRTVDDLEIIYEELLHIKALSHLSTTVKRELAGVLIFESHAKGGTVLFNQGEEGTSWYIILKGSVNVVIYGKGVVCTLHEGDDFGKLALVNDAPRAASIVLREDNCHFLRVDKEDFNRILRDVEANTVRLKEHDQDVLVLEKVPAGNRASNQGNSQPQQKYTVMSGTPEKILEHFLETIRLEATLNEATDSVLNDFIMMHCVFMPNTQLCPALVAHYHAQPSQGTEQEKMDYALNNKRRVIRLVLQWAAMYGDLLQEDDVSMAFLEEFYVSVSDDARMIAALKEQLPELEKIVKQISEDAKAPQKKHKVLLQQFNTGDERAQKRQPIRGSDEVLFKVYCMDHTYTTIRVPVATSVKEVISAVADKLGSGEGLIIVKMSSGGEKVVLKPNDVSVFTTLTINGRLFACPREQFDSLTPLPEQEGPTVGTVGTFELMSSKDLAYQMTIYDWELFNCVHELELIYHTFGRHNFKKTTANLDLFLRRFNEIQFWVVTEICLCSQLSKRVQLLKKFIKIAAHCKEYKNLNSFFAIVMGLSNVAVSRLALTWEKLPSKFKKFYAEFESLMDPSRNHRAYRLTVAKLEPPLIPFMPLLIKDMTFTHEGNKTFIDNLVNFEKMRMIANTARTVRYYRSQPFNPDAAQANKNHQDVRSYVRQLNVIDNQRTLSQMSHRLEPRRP
Structure (SMILES),"activity, negative = inhibition",Potency
COC(=O)C1=C(C(=O)OC)[C@@H]2N(C)c3ccccc3[C@@]23C[C@@H](C(=O)OC)N(C(=O)C2CCC2)C3=N1,inconclusive: -20.6% [inhibitor],
COc1cccc(C(NC(C)=O)c2nc(-c3cccc(C(F)(F)F)c3)cs2)c1 (stereo unspecified),,"inconclusive [inhibitor, full curve]"
CCOc1ncccc1C(=O)N1CCN(c2cc(Cl)ccc2C)CC1,,"inconclusive [inhibitor, partial curve]"
Cc1cc(S(=O)(=O)Nc2cccnc2)c(Cl)cc1Cl,,"inconclusive [inhibitor, partial curve]"
O=C(CC12CC3CC(CC(C3)C1)C2)N/N=C\c1ccc[nH]1,,"inconclusive [inhibitor, partial curve]"
CSc1ccc(CN2CCC2(C)C(=O)NC2CCN(Cc3ccccc3)CC2)cc1 (stereo unspecified),inactive: 2.02%,
COc1cccc(-c2nnc3sc(-c4ccccc4)nn23)c1,inactive: 8.57%,
Cc1cc(C)nc(SCC(=O)N2CCc3ccccc32)n1,inactive: 1.6%,
COc1ccc(N=Cc2cc(Cl)ccc2O)cc1Cl,,"inconclusive [inhibitor, partial curve]"
Cc1ccc(C2CC2/C(=N/O)c2ccc(F)cc2)cc1 (stereo unspecified),,"inconclusive [inhibitor, partial curve]"
Cc1cc(NC(=O)c2ccco2)ccc1NC(=O)Cc1cccs1,,"inconclusive [inhibitor, partial curve]"
C=CC[C@@H](Cc1ccc(F)cc1)C(=O)OC[C@@H]1CCCN1C(=O)[C@@H](CC=C)CC(=O)N(CCO)Cc1ccccc1,,"inconclusive [inhibitor, partial curve]"
CCc1nc2c(OCc3ccc(C(=O)N(C)C)cc3)cccn2c1N(C)C(=O)c1ccc(C)cc1,,"inconclusive [inhibitor, full curve, poor fit]"
O=C(COc1ccc(F)c(Cl)c1)c1ccc[nH]1,inactive: -1.62%,
COc1ccc(C(C)C)cc1S(=O)(=O)N1CCC(C(=O)NCC2CCCO2)CC1 (stereo unspecified),inactive: 1.52%,
CC(C)(C)C1CCC(C(=O)OCC(=O)c2ccc[nH]2)CC1 (stereo unspecified),,"inconclusive [inhibitor, partial curve]"
CCN(CC)c1ccc(S(=O)(=O)N2CCOCC2)cc1NC(=O)CSc1ccccc1,inactive: -12.3%,
CC1=C(C(=O)OC(C)C)C(c2cccs2)n2ncnc2N1 (stereo unspecified),,"inconclusive [inhibitor, partial curve]"
C[C@H](CO)N1C[C@H](C)[C@@H](CN(C)C(=O)NC2CCCCC2)Oc2ccc(NS(=O)(=O)c3cccs3)cc2C1=O,inactive: 12.9%,
Cc1cc(C)cc(Oc2coc3cc(O)ccc3c2=O)c1,,"inconclusive [inhibitor, partial curve]"
C=CCn1c(-c2csc(-c3ccc(Cl)cc3)n2)n[nH]c1=S,inactive: 1.29%,
COCC(=O)NNS(=O)(=O)c1ccccc1[N+](=O)[O-],inconclusive: -13.8% [inhibitor],
COc1ccc(C(NC(=O)c2cccnc2)c2cc(Cl)c3cccnc3c2O)cc1OC (stereo unspecified),inactive: 28.3%,
CN(C)c1ccc(/C=N/n2c(-c3ccccc3Br)n[nH]c2=S)cc1,inactive: -13.7%,

Structure (SMILES),"activity, negative = inhibition",Potency
O=C(Nc1ccc(Cl)cc1)C1C2C=CC3(O2)C1C(=O)N(CCN1CCCCC1)C3C(=O)NC1CCCCC1 (stereo unspecified),inactive: 0.406%,
COc1ccccc1C1CC(=O)Oc2cc(OC)c(OC)c(OC)c21 (stereo unspecified),,"inconclusive [inhibitor, partial curve]"
COC(=O)C1=CN(Cc2cccs2)C=C(C(=O)OC)C1c1cccc(Cl)c1,,"inconclusive [inhibitor, full curve]"
Cc1cc(NC2=CC(=O)C(=O)c3ccccc32)no1,,"inconclusive [inhibitor, single point]"
Cc1cc(C)c(NC(=O)c2ccccc2C(=O)c2ccccc2)c(C)c1,,"inconclusive [inhibitor, partial curve]"
CC(=O)C1=C(C)OC2(O)c3ccccc3C(=O)C12O (stereo unspecified),inactive: -24.5%,
CCOC(=O)c1c(Cc2cccc(Cl)c2)c[nH]c1C,,"inconclusive [inhibitor, partial curve]"
Cc1ccc(SCCSc2ncccn2)cc1,,"inconclusive [inhibitor, partial curve]"
COCCCN1CCN(C2Cc3ccccc3Sc3ccc(Cl)cc32)CC1 (stereo unspecified),inactive: 0.196%,
O=C(O)CCCC(=O)N1CCN(c2nc(-c3ccccc3Cl)c3cc(Br)ccc3n2)CC1,,"inconclusive [inhibitor, full curve]"
COc1ccc(N/C=C2\CCc3ccccc3C2=O)cc1,inactive: -0.157%,
C=CCOc1c(CCC)cc(CCC)cc1C(N)=O,,"inconclusive [inhibitor, partial curve]"
Cc1ccc(CC#N)c(-c2c(CC#N)ccc(C)c2C)c1C,,"inconclusive [inhibitor, full curve]"
CCCc1ccc(OCCNC(=O)c2ccccc2Br)cc1,,"inconclusive [inhibitor, partial curve]"
COc1cccc(CNc2ccccc2O)c1OCc1ccccc1F,,"inconclusive [inhibitor, partial curve]"
O=C(O)C(Cc1ccccc1)N1C(=O)/C(=C/c2cccs2)SC1=S (stereo unspecified),,"inconclusive [inhibitor, partial curve]"
Cc1ccccc1NC1c2ccccc2C(=O)N1Cc1ccco1 (stereo unspecified),,active: 31.6 µM
CCCc1c(-c2ccc(F)cc2F)ncn1Cc1cccc(-c2ccccc2)c1,,"inconclusive [inhibitor, full curve, poor fit]"
NC(=O)CC(NC(=O)Cc1cccc2ccccc12)c1ccc(N2CCN(c3ccccn3)CC2)c([N+](=O)[O-])c1 (stereo unspecified),inactive: 4.56%,
CC(=O)O/N=C1\C(=O)N(Cc2ccc(C)cc2)c2ccccc21,,"inconclusive [inhibitor, single point]"
COCOc1cccc(CN2CCC2(C)C(=O)Nc2ccc(C)cc2)c1 (stereo unspecified),,"inconclusive [inhibitor, partial curve]"
Nc1ccc2c(S(=O)(=O)O)cccc2c1S(=O)(=O)O,,active: 56.2 µM
CN(C/C=C/c1ccccc1)C1CCCCC1,inactive: 8.95%,
c1ccc2c(c1)COc1c3cc4c(cc3nn1-2)OCO4,,"inconclusive [inhibitor, partial curve, poor fit]"

Structure (SMILES),"activity, negative = inhibition",Potency
CCc1ccc(NC(=O)COc2cccc(-n3cnnn3)c2)cc1,,"inconclusive [inhibitor, single point]"
CCOC(=O)C1=CCN(S(=O)(=O)c2cccc(Cl)c2)C1c1ccccc1 (stereo unspecified),,"inconclusive [inhibitor, partial curve]"
Oc1ccccc1Oc1c(F)c(F)nc(N2CCCC2)c1F,,"inconclusive [inhibitor, partial curve]"
O=C(COc1ccc(F)cc1)Nc1nccs1,inactive: 182%,
Cc1c(CCC(=O)N[C@@H](CC(C)C)C(=O)O)c(=O)oc2cc3oc4c(c3cc12)CCCC4,,"inconclusive [inhibitor, partial curve, poor fit]"
CC(C)(C)n1nc(Cc2cccc3ccccc23)c2c(N)ncnc21,inconclusive: -18.3% [inhibitor],
Cc1nc2ccc(Br)cc2c2c1CC(CBr)O2 (stereo unspecified),,"inconclusive [inhibitor, partial curve]"
O=C(Nc1ccccc1N1CCOCC1)c1csc2c1CCCC2,,"inconclusive [inhibitor, full curve]"
Cc1ccc(S(=O)(=O)N(CC(=O)NC2CC3CCC2C3)c2ccccc2)cc1 (stereo unspecified),inactive: -2.39%,
C[C@@H]1CN([C@@H](C)CO)C(=O)c2cc(C#CC3CCCCC3)cnc2O[C@@H]1CN(C)S(=O)(=O)c1ccc(F)cc1,inactive: 7.8%,
CC(=O)c1c(O)c(C)c(O)c2c1OC1=CC(=O)/C(=C(/C)N)C(=O)C12C (stereo unspecified),,"inconclusive [inhibitor, partial curve]"
N#C/C(=C\c1ccc(OCc2ccc(C(=O)O)cc2)cc1)C(=O)N1CCOCC1,,"inconclusive [inhibitor, full curve]"
COc1ccccc1-c1nnc(NC(=O)c2ccc3c(c2)OCO3)s1,inactive: -2.84%,
O=c1[nH]c(C2CCN(S(=O)(=O)c3cccc([N+](=O)[O-])c3)CC2)nc2c1nnn2Cc1ccccc1,inactive: -17.3%,
CCCCC(=O)NC(=S)Nc1cccc(NC(=O)c2ccccc2)c1,,"inconclusive [inhibitor, full curve, poor fit]"
COc1ccc(S(=O)(=O)Nc2cccc3c2O[C@H](CN(C)C(=O)Nc2ccc(C(F)(F)F)cc2)[C@@H](C)CN([C@H](C)CO)C3=O)cc1,,"inconclusive [inhibitor, partial curve]"
O=C(O)c1ccc(S(=O)(=O)N(CCc2ccccc2)Cc2ccc(Cl)cc2)cc1,,"inconclusive [inhibitor, full curve]"
Cc1cccc(C)c1NC(=O)C(c1cccc2ccccc12)n1c(=O)c(-c2ccco2)nc2ccccc21 (stereo unspecified),inactive: 5.32%,
CC(C)c1ccc(C(O)P(=O)(OC2CCCCC2)OC2CCCCC2)cc1 (stereo unspecified),,"inconclusive [inhibitor, full curve]"
CCOC(=O)N1CCC(N2CCN(c3cc(C)ccc3C)CC2)CC1,inactive: 14.2%,
O=C(c1ccc2c3n(nc2c1)-c1ccccc1CO3)N1CCOCC1,inactive: 4.01%,
CCN(CC(=O)Nc1c(F)cccc1F)C(=O)Cc1csc(-c2ccc(OC)c(OC)c2)n1,,"inconclusive [inhibitor, single point]"
Cc1ccc(NC(=O)c2ccccc2NC(=O)Cc2ccccc2)cc1,inactive: -5.17%,
